Measurements taken from publication PMC6919601, “Identification of Plasmodium dipeptidyl aminopeptidase allosteric inhibitors by high throughput screening” (PLoS ONE, 2019).
In all, about 110,000 compounds went through this assay and about 230 (0.21%) showed an effect of 50% or more. This is one part of the list.

target: DPAP1 (Plasmodium falciparum, UniProt Q8IIJ9); test: primary screen, percent inhibition; read by cleavage of a fluorogenic dipeptide substrate; higher = more effect of the substance; design: species or system P. falciparum D10 trophozoite lysates; single well
Sequence (Q8IIJ9 whole entry, looked up): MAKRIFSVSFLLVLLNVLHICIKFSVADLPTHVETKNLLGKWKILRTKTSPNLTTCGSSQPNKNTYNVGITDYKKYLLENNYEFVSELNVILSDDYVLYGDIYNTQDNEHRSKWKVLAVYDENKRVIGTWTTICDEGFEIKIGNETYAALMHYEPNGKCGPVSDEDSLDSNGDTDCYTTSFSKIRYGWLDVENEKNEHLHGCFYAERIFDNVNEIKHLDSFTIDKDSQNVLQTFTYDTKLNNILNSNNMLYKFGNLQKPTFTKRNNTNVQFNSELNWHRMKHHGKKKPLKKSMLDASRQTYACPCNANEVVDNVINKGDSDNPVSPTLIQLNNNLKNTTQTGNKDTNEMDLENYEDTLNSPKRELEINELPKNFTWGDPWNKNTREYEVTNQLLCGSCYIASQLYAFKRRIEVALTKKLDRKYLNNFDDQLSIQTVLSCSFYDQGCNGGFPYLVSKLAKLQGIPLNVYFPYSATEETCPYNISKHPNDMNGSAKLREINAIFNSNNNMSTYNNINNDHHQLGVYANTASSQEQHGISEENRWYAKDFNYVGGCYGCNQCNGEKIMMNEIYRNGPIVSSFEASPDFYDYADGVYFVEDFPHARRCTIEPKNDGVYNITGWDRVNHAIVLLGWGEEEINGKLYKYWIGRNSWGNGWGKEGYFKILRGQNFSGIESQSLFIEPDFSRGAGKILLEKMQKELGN
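Also: 30 min substrate incubation versus DMSO and 10 µM JCP410 controls.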

SMILES	% Inhibition @ 10 uM
O=C(NC1CCCCCC1)c1nsc2ccccc12	-7.02%
O=C(CN1CCN(Cc2ccccc2)C1=O)NCCc1ccccc1	-0.704%
CC(Cc1ccccc1F)N1CCN(c2ccccc2)CC1 (stereo not shown)	-3.42%
O=C(NCC1CCCC1c1ccccc1)C1c2ccccc2C(=O)N2CCc3ccccc3C12 (stereo not shown)	5.12%
CCOC(=O)C1=C(C)N=c2s/c(=C/c3ccc(OC)cc3)c(=O)n2C1c1ccccc1F (stereo not shown)	5.94%
Cc1c(Cl)cccc1NC(=O)c1cccc(Br)c1	-3.65%
CN1CCN(Cc2c(NC(=O)c3ccccc3F)sc3c2CCC3)CC1	-4.72%
Nc1ccccc1C(=O)Nc1ccc(F)cc1	-4.63%
Cn1c(=O)c2c(nc(Sc3ncccn3)n2Cc2ccccc2Cl)n(C)c1=O	-2.71%
c1ccc2c(CCNC3CCCCCC3)c[nH]c2c1	1.57%
COc1cccc(CN2CCc3ccccc3C2)c1	4.81%
O=C(CSc1nc2ccc(NC(=O)c3ccccc3F)cc2s1)NC1CC1	-3.19%
CC1=C(C(=O)Nc2ccccc2)C(c2ccccc2)N2C(=O)CSC2=N1 (stereo not shown)	2.09%
Cc1cccc(NCN2C(=O)C3C4C=CC(C4)C3C2=O)c1 (stereo not shown)	-7.61%
Cc1ccc(S(=O)(=O)NCC/N=C/c2c[nH]c3ccccc23)cc1	3.72%
CCCc1[nH]nc2c1C(=O)CC(CC(C)SCC)C2 (stereo not shown)	-6.29%
Cc1ccc2c(c1Br)C1(C(=O)N2)C(C#N)=C(N)OC2=C1C(=O)CC(c1ccco1)C2 (stereo not shown)	5.67%
CC1CC(NC(=O)C2C3CCC(O3)C2C(=O)O)CC(C)(C)C1 (stereo not shown)	0.76%
Cc1ccc(C)c(-c2csc(NC(=O)c3ccnn3C)c2C#N)c1	1.43%
C=CCOc1ccc(/C=c2\sc3nc(-c4ccccc4OC)nn3c2=O)cc1	0.561%
CCCSc1nnc2nc3c(nn12)c1ccccc1n3C	0.415%
COc1ccc(Cl)cc1/C=C1\S/C(=N/c2ccc(C(=O)O)cc2)N(C)C1=O	-9.45%

SMILES	% Inhibition @ 10 uM
N#Cc1cnn2c(C(F)(F)F)cc(C34CC5CC(CC(C5)C3)C4)nc12	-0.99%
COc1ccc2cc(C=O)c(O)nc2c1	5.88%
CC(C)CC1NC(=O)C(C#N)=C(SCc2ccccc2)S1 (stereo not shown)	-5.01%
CC(NC(=O)c1ccccc1NC(=O)c1ccc(CN2CCOCC2)cc1)c1ccccc1 (stereo not shown)	-6.07%
Cc1ccc(NC(=O)c2c([N+](=O)[O-])ncn2C)cc1	1.24%
Cc1ccc(CNC(=O)Nc2nnc(N3CCCC(C)C3)s2)cc1 (stereo not shown)	-1.08%
CCCSc1ccc2[nH]c(NC(=O)CSc3nc(SC)ns3)nc2c1	0.221%
CCN1C(=O)/C(=C/c2c(OC)cc(OC)cc2OC)C(=O)NC1=S	-6.22%
CC1CCCC(C)N1C(=O)C1CC(c2ccc(F)cc2)=NO1 (stereo not shown)	-5.79%
CN1C(=O)NC(=O)/C(=C/c2cccc(OCC(=O)O)c2)C1=O	2.94%
CC(NC(=O)CN1C(=O)c2cccc3cccc1c23)c1ccccc1 (stereo not shown)	-5.35%
CCCCCCCCCC(=O)c1c(C)[nH]c(C(=O)OCC)c1C	-2.51%
CCN(CC)Cc1nc(O)c2ccccc2n1	-3.04%
CC1(C)CC2CC(C)(CN2C(=O)c2cc(-c3ccc(O)cc3)on2)C1 (stereo not shown)	0.0654%
Cc1ccc(N2CCN(C(=O)c3ccccc3NC(=O)C3CC=CCC3C(=O)O)CC2)cc1 (stereo not shown)	2.48%
CCn1ncc(CNC(=O)c2cc3nc(-c4ccc(C)c(C)c4)cc(C(F)(F)F)n3n2)c1C	7.04%
COc1ccc(CNC(=O)C(NS(=O)(=O)c2cccs2)c2ccccc2)cc1 (stereo not shown)	0.0654%
CN(CCC#N)C(=O)c1cc2c(s1)-c1ccccc1OC2	-4.85%
CCOCCCNC(=O)C(c1ccc(C)cc1)N(Cc1cccs1)C(=O)c1ccc(O)nc1 (stereo not shown)	-5.57%
Oc1nc(SCc2ccccc2F)nc2c1CCCC2	-3.94%
Cc1nc(O)c2c(n1)OC(N)=C(C#N)C2c1ccccc1Cl (stereo not shown)	-2.18%
CCN1CCN(C(=O)c2cc(-c3ccc(F)cc3)no2)CC1	4.59%

SMILES	% Inhibition @ 10 uM
O=C1C2ON(c3ccc(Cl)cc3)C(c3ccco3)C2C(=O)N1Cc1ccccc1 (stereo not shown)	-5.07%
CCOCCCNC(=O)c1ccc2c(c1)C1C3CCC(C3)C1C(c1ccccc1)N2 (stereo not shown)	1.92%
CN(C)CCN(C(=O)COc1ccc(Cl)cc1)c1nc2cc3c(cc2s1)OCO3	2.72%
O=S(=O)(Nc1ccc(Br)cc1)c1ccc(Br)cc1	-5.23%
CC(=O)c1ccc(NC(=O)/C=C/c2ccc3c(c2)OCO3)cc1	-2.12%
N=C(NC(=O)c1ccccc1)N1CCC(C(N)=O)(N2CCCCC2)CC1	4.83%
Cc1cccc(OCCCCn2c(C)nc3ccccc32)c1	1.12%
CC(C)CN1CC1C(=O)NCc1ccccc1 (stereo not shown)	0.132%
CCCc1cc(C(=O)NCc2ccccc2)no1	-7.15%
COc1ccc(-c2nn(C)c3sc(C(=O)NCc4ccc(F)cc4)cc23)cc1OC	1.02%
CC(C(=O)NCCC1=CCCCC1)n1c(=O)c2cccn2c2cccnc21 (stereo not shown)	-2.39%
O=C(Nc1nc[nH]n1)c1ccc(C(=O)Nc2nc[nH]n2)cc1	-2.63%
COc1cc(C(=O)N2CCN(C(=O)c3cccnc3)CC2)cc(OC)c1OC	-3.02%
Cc1ccc(-n2ncc(C(=O)Nc3cccnc3)c2C2CCN(C(=O)OC(C)(C)C)CC2)c(C)c1	-2.72%
Cc1ccccc1-n1nnc(-c2nc(-c3cccs3)no2)c1N	-0.485%
O=C1OC(c2cc(F)c(F)cc2Cl)=N/C1=C\c1ccccc1	2.92%
CCCCOc1ccc(C2SCC(=O)Nc3c2c(C)nn3-c2ccccc2)cc1 (stereo not shown)	-11.6%
Cc1coc2c1c(C)cc1oc(=O)c(CC(=O)N3CCCC3)c(C)c12	0.895%
O=C(NCc1ccccc1F)c1nc(Cn2cc(Br)cn2)no1	-2.05%
Cc1ccc(C)n1-c1nnc(N2CCC(C(=O)NC3CCN(Cc4ccccc4)CC3)CC2)s1	-0.522%
